Measured values taken from article PMC4336329 (PLoS ONE, 2015).
Out of some 310,000 compounds screened, about 2,200 (0.71%) showed an effect of 50% or more. Effects have a minus sign here. Some of the results follow.

biological target: human ether-à-go-go-related gene (hERG) potassium channel (human, UniProt Q12809); experiment: primary screen, population patch clamp on CHO cells stably expressing hERG
Sequence (Q12809 whole entry, looked up): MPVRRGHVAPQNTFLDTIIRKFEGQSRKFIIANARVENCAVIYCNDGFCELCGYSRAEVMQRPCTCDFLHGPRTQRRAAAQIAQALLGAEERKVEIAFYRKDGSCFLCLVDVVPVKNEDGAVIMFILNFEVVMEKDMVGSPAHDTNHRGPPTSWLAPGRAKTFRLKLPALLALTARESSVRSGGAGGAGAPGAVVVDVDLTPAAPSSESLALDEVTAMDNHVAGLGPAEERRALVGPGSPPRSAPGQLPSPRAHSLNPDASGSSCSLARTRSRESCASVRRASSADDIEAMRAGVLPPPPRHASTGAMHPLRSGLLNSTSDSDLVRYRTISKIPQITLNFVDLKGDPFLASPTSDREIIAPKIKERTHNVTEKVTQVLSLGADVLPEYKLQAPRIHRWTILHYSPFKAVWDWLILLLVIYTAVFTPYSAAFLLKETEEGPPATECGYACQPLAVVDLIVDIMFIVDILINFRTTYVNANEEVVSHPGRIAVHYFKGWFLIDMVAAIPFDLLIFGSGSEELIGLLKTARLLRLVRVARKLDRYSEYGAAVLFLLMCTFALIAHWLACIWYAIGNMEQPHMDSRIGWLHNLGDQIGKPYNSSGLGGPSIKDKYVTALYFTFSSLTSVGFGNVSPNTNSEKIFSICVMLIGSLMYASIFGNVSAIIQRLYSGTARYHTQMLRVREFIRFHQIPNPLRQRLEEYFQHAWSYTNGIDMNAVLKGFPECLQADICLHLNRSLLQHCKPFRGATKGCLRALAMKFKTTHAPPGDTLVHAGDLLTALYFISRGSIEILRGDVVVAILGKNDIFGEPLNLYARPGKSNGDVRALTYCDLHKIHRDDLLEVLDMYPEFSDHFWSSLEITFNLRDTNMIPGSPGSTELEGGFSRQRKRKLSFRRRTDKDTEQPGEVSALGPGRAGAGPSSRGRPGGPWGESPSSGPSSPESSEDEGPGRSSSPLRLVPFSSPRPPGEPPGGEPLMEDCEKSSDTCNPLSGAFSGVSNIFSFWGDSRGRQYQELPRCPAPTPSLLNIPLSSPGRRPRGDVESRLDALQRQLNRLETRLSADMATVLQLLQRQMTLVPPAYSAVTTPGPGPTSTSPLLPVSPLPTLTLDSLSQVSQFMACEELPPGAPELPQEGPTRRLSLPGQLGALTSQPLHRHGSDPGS

| Compound | hERG current change (%, negative = inhibition) at 1uM [%] |
| --- | --- |
| O=C(Nc1ccc(F)c(F)c1)C1CCN(S(=O)(=O)c2cccc3nonc23)CC1 | 13.1 |
| Cc1cccc(C)c1NC(=O)CN(C)S(=O)(=O)c1ccc(-c2ccc(=O)[nH]n2)s1 | -21.1 |
| CCCCOc1ccc(C(=O)NNC(=S)NC(=O)CC)cc1 | 13.1 |
| COc1cccc(CCC(=O)N(C)C2CCCN(Cc3ccccc3F)C2)c1 (stereo not shown) | 16.4 |
| CN(NC(=O)c1ccccc1)C1=NS(=O)(=O)c2ccccc21 | 17.5 |
| COc1ccc(-c2nnc3ccc(SCC(=O)N4CCOCC4)nn23)cc1 | 1.7 |
| CC(C)(C)n1nnnc1C(c1cccc(C#N)c1)N1CCN2CCCC2C1 (stereo not shown) | 6.11 |
| COCC(=O)N/N=C\c1ccc(OC/C=C/c2ccccc2)c(OC)c1 | 2.14 |
| O=C(CNC(=O)C1CCCCC1)Nc1ccccc1 | 19.9 |
| Cc1ccc(N/C=C(\[N+](=O)[O-])S(=O)(=O)c2ccccc2)cc1 | 13.1 |
| O=C(O)C1CC(=O)N(c2ccc(OCc3ccccc3)cc2)C1 (stereo not shown) | -0.19 |
| COc1ccc(F)cc1S(=O)(=O)NCC1CCCO1 (stereo not shown) | 11.9 |
| COc1cccc(C(c2sc3nc(C)nn3c2O)N2CCN(C(=O)c3ccco3)CC2)c1 (stereo not shown) | 4.28 |
| O=S(=O)(Cc1ccc(Cl)cc1)c1ccccc1-c1nnc(-c2ccc(Cl)cc2)o1 | 5.26 |
| C[N+]1(CC(=O)OC2CCCCCCCCCCC2)CCCC1.[I-] | 0.705 |
| CCC(C)(C)n1nnnc1C(c1ccncc1)N1CCN(c2cccc(OC)c2)CC1 (stereo not shown) | 3.98 |
| COc1ccc(NC(=O)CCN2CCN(c3ccccc3F)CC2)c(OC)c1 | 5.24 |
| O=C(Cc1c(F)cccc1Cl)NC1=NCCS1 | 2.96 |
| O=C(N/N=C/C1=C(N2CCOCC2)C(=C\c2ccccc2)/CC1)Nc1ccccc1 | 8.83 |
| CS/C(=N\N(C)C(N)=O)c1ccccc1 | 5.01 |
| COc1ccc(C(=O)C2CCCN(C(=O)CCc3ccccn3)C2)c(C)c1 (stereo not shown) | 9.98 |
| CCn1c(SCc2nc3ccccc3c(=O)[nH]2)nnc1C(C)NC(=O)c1ccccc1F (stereo not shown) | 14.2 |
| O=C(NNc1ccccn1)c1ccc(Cl)nc1 | 7.95 |

| Compound | hERG current change (%, negative = inhibition) at 1uM [%] |
| --- | --- |
| O=[N+]([O-])c1ccc(O)c(/C=N/NC2=NS(=O)(=O)c3ccccc32)c1 | 13.5 |
| CCOC(=O)C(C)(C)NS(=O)(=O)c1ccc(Cl)c([N+](=O)[O-])c1 | 4.07 |
| CNC(=O)CSc1nc(N)c2c3c(sc2n1)CCC3 | -10.6 |
| CCN(CC)c1ccc(NC(=O)c2cc(Cl)ccc2OC)cc1 | -6.18 |
| CCOC(=O)[C@H]1[C@H]2COc3cc(OC)ccc3[C@@H]2N2C(=O)CN(Cc3ccco3)C(=O)[C@@]12C | 15.1 |
| O=C(NCc1ccco1)c1cccnc1-c1nc2ccccc2s1 | -5.39 |
| CCC(C)S(=O)(=O)c1snnc1C (stereo not shown) | 13.6 |
| Cc1ccn2cc(CCNC(=O)c3ccc(Br)o3)nc2c1 | -14.8 |
| CC1CCCCC1NC(=O)CCn1ccc2cc(S(=O)(=O)N3CCCC3)ccc21 (stereo not shown) | 7.83 |
| COC(=O)C1=C(C)NC(C)=C(C(=O)OC)C1c1ccco1 | 12.7 |
| CN(C)S(=O)(=O)c1ccc(C(=O)OCC(=O)NCc2ccccc2)cc1 | 10.4 |
| CN(C)C(=O)c1ccc(NC(=O)c2ccccc2-c2ccccc2)cc1 | 16.2 |
| CCCCN(C(=O)/C=C/c1ccccc1)C1CCS(=O)(=O)C1 (stereo not shown) | 0.645 |
| COc1ccc(Cl)cc1NS(=O)(=O)c1cn(C)nc1C | 10.5 |
| CCOP(=O)(OCC)C(NC(=O)Nc1ccc(C)cc1)C(N)=O (stereo not shown) | 9.23 |
| CC(C)C(NC(=O)c1cccnc1)C(=O)O (stereo not shown) | 9.2 |
| CCc1ccc(NC(=O)C2CCCN(S(=O)(=O)c3cccnc3)C2)cc1 (stereo not shown) | 10.8 |
| N#Cc1cccc(NCC(=O)Nc2cccc(S(=O)(=O)N3CCCCC3)c2)c1 | -4.8 |
| CC(C)=CCC/C(C)=C/C(N)=O | 10.3 |
| Cc1cc(C)c(C(=O)CSc2nc(C)cc(=O)[nH]2)c(C)c1 | 15.6 |
| COc1c(O[C@@H]2O[C@H](CO)[C@@H](O)[C@H](O)[C@H]2O)cc2c(c1OC)-c1ccc(SC)c(=O)cc1C(NC(C)=O)CC2 (stereo partly shown) | -1.1 |
| Cc1ccc(S(=O)(=O)N2CCN(C(=O)COC(=O)C3CCC3)CC2)cc1 | 6.96 |
| O=c1[nH]c2c(n(C3CCCCC3)c1=O)CCC2 | -5.16 |
